{"source": "PubChem BioAssay AID651820", "about": "(National Center for Advancing Translational Sciences (NCATS), 2012)", "note": "“And” between values parts separate entries of the source, which are not always exact repeats. Equal values may be shown once. In all, about 340,000 compounds went through this assay and about 12,000 (3.5%) were called active. Inconclusive results, whose numbers are uncertain, are shown with a selection of clear calls. Calls come from the whole dose curve; as a rule, active = well fitted inhibition curve with a large enough effect; inconclusive = small, poorly fitted or top-dose-only effect, or another doubt; inactive = no such curve, though single readings can be large or run the other way. Potencies of inconclusive entries are doubtful fits and often do not repeat. % is set by controls: 0 for no effect and ±100 for the full control effect; potency is the fitted concentration of half-maximal effect; tags give direction and shape of the fitted curve.", "data": [{"test": "qHTS Assay for Inhibitors of Hepatitis C Virus (HCV)", "settings": "Huh7.5.1 HCVcc-Cre (HCVcc is cell-culture hepatitis C virus) infection, luciferase reporter, 44 h; activity change, negative = inhibition: at 41.8 µM (top of the series)", "outline": "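Infectious HCVcc-Cre (~0.5 moi) was added to cells just after compound, with cells seeded 4 h earlier at 1,000 per well. Luciferase activity after 44 h culture reported infection; substrate was incubated 15 min at room temperature before reading.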", "values": [{"smiles": "Cc1cc(-c2ccccc2)nc(SCC(=O)N2CCCC2)n1", "Potency": "active: 25.1 µM"}, {"smiles": "Cc1ccc(C(=O)N/C(=C\\c2ccc(-c3cccc([N+](=O)[O-])c3)o2)C(=O)NCCCN2CCOCC2)cc1", "Potency": "active: 10 µM"}, {"smiles": "COc1ccc(CC(=O)Nc2cc(C)ccn2)cc1", "activity change, negative = inhibition": "inactive: 15.6%"}, {"smiles": "CCOC(=O)Cc1csc(SCC(=O)Nc2ccc(C)cc2F)n1", "Potency": "inconclusive: 35.5 µM [inhibitor, single point]"}, {"smiles": "O=C(COc1cc(F)ccc1[N+](=O)[O-])Nc1ccc(N2CCCCC2)cc1", "Potency": "inconclusive: 5.01 µM [inhibitor, partial curve]"}, {"smiles": "CC1CCN(CCCCOc2ccc(Br)cc2)CC1", "Potency": "active: 11.2 µM"}, {"smiles": "Oc1ccc(Cl)cc1CNc1cnc2ccccc2c1", "Potency": "inconclusive: 31.6 µM [inhibitor, single point]"}, {"smiles": "Fc1ccccc1Nc1nc(N2CCOCC2)nc(N2CCOCC2)n1", "Potency": "inconclusive: 5.01 µM [inhibitor, partial curve]"}, {"smiles": "Cc1ccc(NC(=O)CSc2nc3ccccc3c(=O)n2CCCN2CCCCC2)cc1Cl", "Potency": "active: 2 µM"}, {"smiles": "CCN1C(=O)[C@H]2[C@@H](c3ccc(C)cc3)N3C(=O)N(c4ccccc4)C(=O)[C@@]3(Cc3ccc(Cl)cc3)[C@H]2C1=O", "Potency": "inconclusive: 28.2 µM [inhibitor, single point]"}, {"smiles": "O=C(Oc1ccc2cccc(OC(=O)N3CCOCC3)c2c1)N1CCOCC1", "activity change, negative = inhibition": "inactive: 6.77%"}, {"smiles": "N#CCSc1nc(-c2ccccc2)cs1", "activity change, negative = inhibition": "inactive: 14.2%"}, {"smiles": "C/C(=N/NC(=O)COc1ccc(C(C)(C)C)cc1)c1ccc(N2CCOCC2)cc1", "Potency": "inconclusive: 11.2 µM [inhibitor, partial curve, poor fit]"}, {"smiles": "CC1CCCC(C)N1C(=O)COC(=O)c1ccc2ccccc2n1", "note": "(configuration not stated)", "activity change, negative = inhibition": "inactive: 9.08%"}, {"smiles": "Cc1ccc(C)c(C2=NNC(=NCc3ccccc3)SC2)c1", "Potency": "inconclusive: 11.2 µM [inhibitor, single point]"}, {"smiles": "CCOc1ccccc1CN1CCNC(=O)C1CC(=O)NCCC1=CCCCC1", "note": "(configuration not stated)", "Potency": "inconclusive: 11.2 µM [inhibitor, partial curve]"}, {"smiles": "OCCN1CCN(C2Cc3cc(Cl)ccc3Sc3ccc(Cl)cc32)CC1", "note": "(configuration not stated) (tested in a mixture with another compound)", "Potency": "inconclusive: 22.4 µM [inhibitor, partial curve]"}, {"smiles": "CCOC(=O)c1ccccc1NC1c2ccccc2C(=O)N1c1cc(C)ccn1", "note": "(configuration not stated)", "Potency": "inconclusive: 11.2 µM [inhibitor, partial curve]"}, {"smiles": "COc1ccc(-c2noc(Cc3ccccc3OC)n2)cc1", "Potency": "inconclusive: 35.5 µM [inhibitor, partial curve]"}, {"smiles": "CC(C)CN(C(=O)COC(=O)c1cc2ccccc2cc1O)c1c(N)n(Cc2ccccc2)c(=O)[nH]c1=O", "Potency": "inconclusive: 10 µM [inhibitor, partial curve]"}, {"smiles": "O=C(Nc1cccc(F)c1)N1CC=C(n2c(=O)[nH]c3ccccc32)CC1", "Potency": "inconclusive: 31.6 µM [inhibitor, single point]"}, {"smiles": "CC(C)(C)N1C(=O)c2ccc(C(=O)Nc3ccc(O)cc3)cc2C1=O", "Potency": "inconclusive: 31.6 µM [inhibitor, single point]"}, {"smiles": "CCC1(c2ccc(F)cc2)NC(=O)N(CC(=O)Nc2cccc(S(=O)(=O)N3CCCC3)c2)C1=O", "note": "(configuration not stated)", "Potency": "inconclusive: 31.6 µM [inhibitor, single point]"}, {"smiles": "C=CCOC(=O)c1sc(NC(=O)c2ccco2)nc1C", "activity change, negative = inhibition": "inactive: 6.82%"}, {"smiles": "CCOc1ccc(CN2C(=O)c3ccccc3C2=O)cc1C(=O)Nc1nnc(SCC)s1", "Potency": "inconclusive: 11.2 µM [inhibitor, partial curve, poor fit]"}, {"smiles": "COC(=O)c1ccc(Cn2cc([N+](=O)[O-])cn2)cc1", "activity change, negative = inhibition": "inactive: -3.28%"}, {"smiles": "COC(=O)c1cn(NC(=O)/C=C/c2ccc(OC)c(OC)c2)c(=O)c2ccccc12", "activity change, negative = inhibition": "inactive: -24.9%"}, {"smiles": "Cc1cc(-c2ccc(C)c(S(=O)(=O)NCC3CCN(Cc4ccccc4F)CC3)c2)on1", "Potency": "inconclusive: 11.2 µM [inhibitor, partial curve]"}, {"smiles": "CCOC(=O)C1CCCN(C(=S)NC2CCCCC2)C1", "note": "(configuration not stated)", "Potency": "inconclusive: 31.6 µM [inhibitor, single point]"}, {"smiles": "O=C1CC(C(=O)O)C(c2ccccc2)c2ccccc21", "note": "(configuration not stated)", "activity change, negative = inhibition": "inactive: 15.1%"}, {"smiles": "COc1ccc(-c2cc(-c3ccccc3)c(C#N)c(S(C)=O)n2)cc1", "note": "(configuration not stated)", "Potency": "active: 22.4 µM"}, {"smiles": "COc1ccccc1NC(=O)Cn1nc(-c2ccc(Cl)cc2)c2ccccc2c1=O", "Potency": "active: 10 µM"}, {"smiles": "COc1cccc(-c2cc(C(=O)Nc3cc(C)n(Cc4ccc(Cl)cc4)n3)no2)c1", "Potency": "active: 6.31 µM"}, {"smiles": "Cc1ccc(C)c(N2CCN(S(=O)(=O)c3c(C)noc3/C=C/N(C)C)CC2)c1", "Potency": "inconclusive: 12.6 µM [inhibitor, partial curve]"}, {"smiles": "Cc1ccccc1Cn1c2ccccc2c2cn[nH]c(=O)c21", "Potency": "inconclusive: 14.1 µM [inhibitor, partial curve]"}, {"smiles": "O=C(O)CONC(=O)c1cc(OCC(F)(F)F)ccc1OCC(F)(F)F", "Potency": "inconclusive: 3.16 µM [inhibitor, partial curve]"}, {"smiles": "CCc1ccc2nc(N(CCCN(C)C)C(=O)c3ccc(S(=O)(=O)N4CCc5ccccc5C4)cc3)sc2c1", "Potency": "inconclusive: 8.91 µM [inhibitor, partial curve, poor fit]"}, {"smiles": "C=CCn1c(SCC(=O)c2cccs2)nnc1-c1cccc(OC)c1", "activity change, negative = inhibition": "inactive: 0.0135%"}, {"smiles": "COC(=O)C(=Cc1ccccc1[N+](=O)[O-])C(=O)OC", "Potency": "inconclusive: 28.2 µM [inhibitor, single point]"}, {"smiles": "Cc1csc2nc(CNS(=O)(=O)c3ccc4c(c3)CCCC4)cn12", "Potency": "inconclusive: 5.01 µM [inhibitor, full curve, poor fit]"}, {"smiles": "Cc1c(Cl)cccc1N/C(SCC(=O)N1CCCCCC1)=C(/C#N)c1nc2ccccc2s1", "Potency": "inconclusive: 3.55 µM [inhibitor, full curve]"}, {"smiles": "COc1cc(OC)c(NC(=O)CCNC(=O)Cn2cnc3ccccc3c2=O)cc1Cl", "Potency": "inconclusive: 5.62 µM [inhibitor, single point]"}, {"smiles": "O=C(NCc1ccccc1)C1CCCN(S(=O)(=O)c2cccs2)C1", "note": "(configuration not stated)", "Potency": "inconclusive: 10 µM [inhibitor, partial curve]"}, {"smiles": "CCCNc1nc(C)c(C(C)=O)cc1C#N", "Potency": "inconclusive: 14.1 µM [inhibitor, partial curve]"}, {"smiles": "CC(=O)c1ccc(NC(=S)Nc2cccc(S(=O)(=O)Nc3c(C)n(C)n(-c4ccccc4)c3=O)c2)cc1", "Potency": "inconclusive: 5.62 µM [inhibitor, single point]"}, {"smiles": "O=C(NCCc1ccccn1)c1cccc(S(=O)(=O)N2CCc3ccccc32)c1", "Potency": "inconclusive: 31.6 µM [inhibitor, single point]"}, {"smiles": "CCOc1ccc2nc(SCC(=O)NNC(=O)c3ccco3)c(C)cc2c1", "Potency": "inconclusive: 35.5 µM [inhibitor, single point]"}, {"smiles": "N#CC(c1ccccc1)c1ccc2c(C(F)(F)F)cc(C(F)(F)F)nc2n1", "note": "(configuration not stated)", "activity change, negative = inhibition": "inactive: -19.4%"}, {"smiles": "Oc1ccc(Cl)cc1CNc1ccccn1", "activity change, negative = inhibition": "inactive: 7.69%"}, {"smiles": "O=C(Nc1ccc(Cl)c(S(=O)(=O)N2CCCCC2)c1)c1ccncc1", "Potency": "active: 8.91 µM"}, {"smiles": "COc1cc(C(=O)Nc2ccc(-c3nc4cc(C)ccc4o3)c(O)c2)cc(OC)c1OC", "Potency": "inconclusive: 6.31 µM [inhibitor, partial curve]"}, {"smiles": "COc1cc(N2CCCC2)c(OC)cc1/C=C(/C#N)c1ccc(F)cc1", "Potency": "inconclusive: 31.6 µM [inhibitor, single point]"}, {"smiles": "CC(C)Oc1ccc(C(=O)Nc2ccc(N3CCCC3)cc2)cc1", "Potency": "inconclusive: 31.6 µM [inhibitor, single point]"}, {"smiles": "COc1ccc2cc3[n+](cc2c1OC)CCc1cc2c(cc1-3)OCO2", "Potency": "inconclusive: 7.08 µM [inhibitor, partial curve] and inconclusive: 3.16 µM [inhibitor, full curve]"}, {"smiles": "CC(=O)N1CCc2cc(S(=O)(=O)CCC(=O)NCc3ccc(C)o3)ccc21", "activity change, negative = inhibition": "inactive: 13.8%"}, {"smiles": "CCOC(=O)c1c(NC(C)=O)sc2c(OC)c(Br)ccc12", "Potency": "inconclusive: 0.501 µM [inhibitor, full curve, poor fit]"}, {"smiles": "Clc1cccc(-c2cc3nc4c(c(N5CCNCC5)n3n2)CCCC4)c1", "activity change, negative = inhibition": "inactive: 4.92%"}, {"smiles": "COc1ccc(OCCNc2cc(N3CCOCC3)ccc2[N+](=O)[O-])cc1", "Potency": "inconclusive: 22.4 µM [inhibitor, single point]"}, {"smiles": "CCCCn1c(=O)[nH]c(=O)c2c(C(=O)OCC)cc(-c3cccs3)nc21", "Potency": "active: 10 µM"}, {"smiles": "CCOC(=O)Nc1sc2nc(C)cc(C)c2c1-n1cccc1", "Potency": "inconclusive: 25.1 µM [inhibitor, single point]"}, {"smiles": "CCN1CCN(c2ccc(S(=O)(=O)N3CCCCC3)cc2NC(=O)c2cc3ccccc3o2)CC1", "Potency": "inconclusive: 20 µM [inhibitor, single point]"}, {"smiles": "COc1ccc(CCC(=O)Nc2cc([N+](=O)[O-])ccc2OC)cc1", "Potency": "inconclusive: 35.5 µM [inhibitor, partial curve, poor fit]"}, {"smiles": "COC(=O)c1cc(NC(=O)C(C)c2ccc(CC(C)C)cc2)ccc1O", "note": "(configuration not stated)", "Potency": "active: 11.2 µM"}, {"smiles": "COc1ccc(NC(=O)C2Cc3cc(S(=O)(=O)N4CCCCC4)ccc3N2C(C)=O)cc1Cl", "note": "(configuration not stated)", "Potency": "inconclusive: 35.5 µM [inhibitor, partial curve]"}, {"smiles": "CCOC(=O)c1ccc(NC(=O)CCc2nc(-c3ccccc3)no2)cc1", "Potency": "inconclusive: 11.2 µM [inhibitor, partial curve]"}, {"smiles": "O=C(NNC(=O)C1CC1c1ccccc1)c1ccccc1[N+](=O)[O-]", "note": "(configuration not stated)", "activity change, negative = inhibition": "inactive: 0.542%"}, {"smiles": "CCOC(=O)CCn1c(=O)c2c(nc(Br)n2Cc2ccccc2)n(C)c1=O", "Potency": "inconclusive: 10 µM [inhibitor, partial curve]"}]}]}
